Assay results: patent publication US20250228951A1, “NOVEL-PEPTIDE-BASED ANTICANCER IMMUNOTHERAPEUTIC AGENT” (TWINPIG BIOLAB INC., priority 2022, published 2025)

Target: T1, membrane protein ITGB2 of M2 macrophages (Homo sapiens, UniProt P05107)
T1 construct: cell membrane proteins of macrophages were obtained using a cell membrane protein extraction kit; endogenous in cells; host or cells: THP-1 cells differentiated into M2 macrophages
Test: Biotin-peptide pull-down of macrophage cell membrane proteins with LC-MS/MS proteomics
Assay type: binding
Conditions: biotin-conjugated peptide reacted with cell membrane proteins of M0, M1, M2 macrophages
Procedure: To determine which protein of M2 macrophages was involved in the specific binding of melittin to M2 macrophages, biotin-conjugated melittin (melittin-biotin) was synthesized. THP-1 cells (5×10^6 cells) were differentiated into M0, M1, and
M2 macrophages, and then collected using a scraper, washed by centrifugation (300×g, 5 min), and cell membrane proteins of macrophages were obtained using a cell membrane protein extraction kit (Thermo Fisher scientific). The proteins reacted with melittin-biotin (200 μg) in which biotin bound to melittin at room temperature (20 to 24° C.) for 1 hour, and then the proteins bound to melittin were obtained using a streptavidin resin (Thermo Fisher scientific). To remove the salt, 100 μl each of 100% methanol, 0.1% formic acid, and 80% CAN were added to an 18 Micro Spin-Column, and the sample was loaded onto the prepared column, and added with 50 μl of 0.1% formic acid to remove unnecessary substances. […] After desalting, the solution was completely removed by drying with a Speed-vac, and analyzed by LC-MS/MS using a UPLC-Exactive equipment (Thermo Fisher Scientific) under the conditions shown in Table 2 below. […] For data analysis, LC-MS/MS data for each sample were analyzed using Proteome Discoverer, and performed by LFQ (Label-Free Quantification) using a human database of Uniprot as the database. […]

CC[C@H](C)[C@H](NC(=O)CN)C(=O)NCC(=O)N[C@@H](C)C(=O)N[C@H](C(=O)N[C@@H](CC(C)C)C(=O)N[C@@H](CCCCN)C(=O)N[C@H](C(=O)N[C@@H](CC(C)C)C(=O)N[C@H](C(=O)N[C@H](C(=O)NCC(=O)N[C@@H](CC(C)C)C(=O)N1CCC[C@H]1C(=O)N[C@@H](C)C(=O)N[C@@H](CC(C)C)C(=O)N[C@H](C(=O)N[C@@H](CO)C(=O)N[C@@H](Cc1c[nH]c2ccccc12)C(=O)N[C@H](C(=O)N[C@@H](CCCCN)C(=O)N[C@@H](CCCNC(=N)N)C(=O)N[C@@H](CCCCN)C(=O)N[C@@H](CCCNC(=N)N)C(=O)N[C@@H](CCC(N)=O)C(=O)N[C@@H](CCC(N)=O)C(N)=O)[C@@H](C)CC)[C@@H](C)CC)[C@@H](C)O)[C@@H](C)O)C(C)C)C(C)C [Melittin]
M2 TAM binding target protein: interacted and bound with the membrane protein ITGB2
